23 molecules from publication PMC4336329 (PLoS ONE, 2015) can be followed below.

The whole screen tested about 310,000 compounds, of which about 2,200 (0.71%) showed an effect of 50% or more. Effects have a minus sign here. Some of the results follow.

Chain of human ether-à-go-go-related gene (hERG) potassium channel (Q12809 whole entry, looked up): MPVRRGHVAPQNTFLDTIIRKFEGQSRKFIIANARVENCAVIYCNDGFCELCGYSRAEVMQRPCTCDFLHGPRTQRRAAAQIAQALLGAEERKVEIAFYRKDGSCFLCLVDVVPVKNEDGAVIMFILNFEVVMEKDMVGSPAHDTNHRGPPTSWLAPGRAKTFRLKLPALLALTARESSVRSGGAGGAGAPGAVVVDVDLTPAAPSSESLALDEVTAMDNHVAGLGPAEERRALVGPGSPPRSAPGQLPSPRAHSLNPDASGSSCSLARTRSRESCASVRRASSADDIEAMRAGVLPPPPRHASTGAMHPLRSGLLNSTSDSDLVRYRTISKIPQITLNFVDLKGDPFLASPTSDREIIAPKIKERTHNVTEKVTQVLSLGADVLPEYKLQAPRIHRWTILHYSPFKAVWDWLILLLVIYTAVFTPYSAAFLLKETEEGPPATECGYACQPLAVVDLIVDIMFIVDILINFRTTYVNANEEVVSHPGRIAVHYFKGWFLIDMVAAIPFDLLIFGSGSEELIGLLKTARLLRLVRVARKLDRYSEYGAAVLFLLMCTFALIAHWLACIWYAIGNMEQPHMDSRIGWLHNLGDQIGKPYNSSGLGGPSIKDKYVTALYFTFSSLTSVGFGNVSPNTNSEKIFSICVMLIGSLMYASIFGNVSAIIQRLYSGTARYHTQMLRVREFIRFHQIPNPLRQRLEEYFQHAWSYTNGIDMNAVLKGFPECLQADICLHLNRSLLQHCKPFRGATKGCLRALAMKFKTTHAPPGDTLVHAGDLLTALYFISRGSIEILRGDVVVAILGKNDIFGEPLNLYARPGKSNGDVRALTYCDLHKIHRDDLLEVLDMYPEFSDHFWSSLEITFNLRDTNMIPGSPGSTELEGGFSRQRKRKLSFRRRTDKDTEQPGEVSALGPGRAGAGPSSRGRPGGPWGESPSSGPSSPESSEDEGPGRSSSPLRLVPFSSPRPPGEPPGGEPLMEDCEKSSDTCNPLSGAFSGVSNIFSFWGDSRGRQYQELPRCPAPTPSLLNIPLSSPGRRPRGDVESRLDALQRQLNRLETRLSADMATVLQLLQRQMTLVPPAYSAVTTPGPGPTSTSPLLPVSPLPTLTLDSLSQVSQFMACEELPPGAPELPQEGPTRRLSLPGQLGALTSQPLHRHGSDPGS

This assay addresses human ether-à-go-go-related gene (hERG) potassium channel (human, UniProt Q12809). Description: primary screen, population patch clamp on CHO cells stably expressing hERG.
As to `CCCNC(=O)Cn1cnc2sc(C(=O)N3CCN(c4ccc(F)cc4)CC3)c(C)c2c1=O`, the “hERG current change (%, negative = inhibition) at 1uM” value is on record as -8.15%.
For the molecule `O=C(NCCOc1ccccc1Cl)c1cc(F)c(F)cc1Cl`, the “hERG current change (%, negative = inhibition) at 1uM” value was found to be 5.5%.
Next, `Cc1cc(C(=O)OCC(=O)N2c3ccccc3NC(=O)C2(C)C)c(C)n1-c1ccccc1`: 12.7%; `Cc1ccccc1-c1nnn(CC(=O)Nc2cccc(S(N)(=O)=O)c2)n1`: -0.834%.
Next, `Cc1ccccc1OCC(=O)N/N=C/c1ccc2c(c1)OCCO2`: 2.07%.
Consider `O=C(O)COc1ccc(/C=N/NC(=O)c2cccc3ccccc23)cc1`, for which the “hERG current change (%, negative = inhibition) at 1uM” value turned out to be 13.9%.
Next, `CN(Cc1nc2ccccc2s1)C(=O)c1ccc(F)cc1`: 2.72%.
With `CCOC(=O)NC(=O)CSc1nnnn1-c1ccccc1`, the “hERG current change (%, negative = inhibition) at 1uM” value was 10.4%.
Next, `C/C(=N\NC(N)=S)C12CC3CC(CC(C3)C1)C2`: 14.1%; `COc1ccc(CNC(=S)N/N=C/c2ccncc2)cc1`: 7.9%.
Next, `CCCOc1ccc(NC(=O)C(=O)NCCCn2ccnc2)cc1`: -9.78%.
In the case of `O=C(O)c1cccc(CN2C(=O)S/C(=C/c3ccccc3[N+](=O)[O-])C2=O)c1` it was 10.7%.
Take `Cc1ccc(NC(=O)NCCSc2ccc(C)cc2)cc1`: the “hERG current change (%, negative = inhibition) at 1uM” value is recorded as 11.3%.
In the case of `Cc1cc(/C=N/NC(=O)C(O)(c2ccccc2)c2ccccc2)c(C)n1-c1ccc(C(=O)O)cc1`, the “hERG current change (%, negative = inhibition) at 1uM” value turned out to be 15.1%.
Next, `O=C(CN1C(=O)/C(=C/c2c(F)cccc2Cl)Oc2ccccc21)NCc1ccco1`: -0.908%.
Next, `CCOC(=O)c1cnc2c(C(=O)OC)cccc2c1NCCN1CCOCC1`: -47.1%.
In the case of `O=C(Nc1ccccc1Cl)c1cccc(COc2cc(Cl)ccc2Cl)c1` it was 7.02%; in that of `Cn1c(=O)c2[nH]c(COc3ccc(C(C)(C)C)cc3)nc2n(C)c1=O`, -16.8%; in that of `CCOC(=O)c1[nH]c2ccc(OCC)cc2c1NC(=O)CN1CCN(c2ccccc2)CC1`, 15.9%.
`O=C(O)CC(NC(=O)C(c1ccccc1)c1ccccc1)c1cccc([N+](=O)[O-])c1` (centres unmarked): the “hERG current change (%, negative = inhibition) at 1uM” value was 3.66%.
With `CCOC(=O)c1c(N)sc(C(=O)N(C)C)c1CN1CCOCC1`, the “hERG current change (%, negative = inhibition) at 1uM” value is -4.21%.
For `Cc1c(N2C(=O)CS/C2=N\N=C\c2ccc(Cl)cc2)c(=O)n(-c2ccccc2)n1C`, the “hERG current change (%, negative = inhibition) at 1uM” value is recorded as -11%.
Take `O=[N+]([O-])c1ccc(/C=N\NS(=O)(=O)c2ccc(F)cc2)o1`: the “hERG current change (%, negative = inhibition) at 1uM” value turned out to be 2.37%.
